Legend:
[1] = system: Pseudomonas aeruginosa ATCC9027; experiment: Paper disc test with water or propylene glycol, Example 10; parameters: key: NZ: no accompanying zone of inhibition; CZ: clear zone of inhibition surrounding the sample and zone measured in millimeters (mm)
Excerpt: (§1) PCA or 246 THBA were combined with propylene glycol (PPG). The PPG was placed on a paper disc and then either PCA or 246 THBA was applied. The paper disc was then placed on colonies of various bacterial in a Petri dish. At a certain uniform time they were inspected and classified in the following categories: • NI: no inhibition of bacteria growth under the sample • I: inhibition of bacterial growth under the sample • NZ: no accompanying zone of inhibition • CZ: clear zone of inhibition surrounding the sample and zone measured in millimeters (mm).

[2] = system: Staphylococcus aureus ATCC33591 (MRSA); experiment: as above; parameters: key: NZ: no accompanying zone of inhibition; CZ: clear zone of inhibition surrounding the sample and zone measured in millimeters (mm)
Excerpt: as §1

Measured: zone of inhibition, class

O=Cc1c(O)cc(O)cc1O [2, 4, 6 Trihydroxybenzaldehyde, 2, 4, 6 trihydroxybenzaldehyde]
CZ: [1]; PPG | [1]; Water | [2]; PPG | [2]; Water

O=C(O)c1ccc(O)c(O)c1 [PCA, Protocatechuic acid]
CZ: [1]; PPG | [1]; Water
